Some of the results follow. The list includes weakly bound sequences.

This is an account of results in paper PMC12820563.

The assay addresses T1, MBP-FoxP3dN (UniProt Q99JB6).
T1 sequence: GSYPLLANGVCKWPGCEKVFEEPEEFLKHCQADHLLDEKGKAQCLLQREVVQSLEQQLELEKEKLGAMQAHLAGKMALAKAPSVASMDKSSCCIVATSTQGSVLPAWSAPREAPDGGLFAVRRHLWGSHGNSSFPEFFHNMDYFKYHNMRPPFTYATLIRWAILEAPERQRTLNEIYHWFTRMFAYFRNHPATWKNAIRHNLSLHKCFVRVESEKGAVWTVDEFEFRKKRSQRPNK
The experiment in a line: PD-seq (MBP pull-down with sequencing). The settings on record: 20 mM Tris-HCl pH 7.5, 100 mM NaCl, 1.5 mM MgCl2, 0.4 uM protein, 0.1 uM dsDNA library, 30 min, room temperature, amylose pull-down; high values mean tight binding; double strand, one strand shown.
Regarding “GATGATTGTTCTCCCAGCTGATGAATTGCACTGATCGAGTAAACAAATTTTCCTAATCTTTCTGTTCAAGCGCCATCTAC”, the binding signal (RPM ratio (pull-down/input)) turned out to be 0.683.
For “GATGATTGTTCTCCCAGCTGATGAATTTTCACAATCGAGTAAACAAATTTTCCTAATCTTTCTGTTCAAGCGCCATCTAC” the value was 0.448; for “GATGATTGTTCTCCCAGCTGATGAATTCGGTCTGTCGAGTAAACAAATTTTCCTAATCTTTCTGTTCAAGCGCCATCTAC”, 0.415; for “GATGATTGTTCTCCCAGCTGATGAATTGATAACCTCGAGTAAACAAATTTTCCTAATCTTTCTGTTCAAGCGCCATCTAC”, 0.405.
For “GATGATTGTTCTCCCAGCTGATGAATTGAGGTTATCGAGTAAACAAATTTTCCTAATCTTTCTGTTCAAGCGCCATCTAC” the value was 0.693; for “GATGATTGTTCTCCCAGCTGATGAATTGGGGGACTCGAGTAAACAAATTTTCCTAATCTTTCTGTTCAAGCGCCATCTAC”, 0.448; for “GATGATTGTTCTCCCAGCTGATGAATTATTCACTTCGAGTAAACAAATTTTCCTAATCTTTCTGTTCAAGCGCCATCTAC”, 0.347.
For “GATGATTGTTCTCCCAGCTGATGAATTACCCCGATCGAGTAAACAAATTTTCCTAATCTTTCTGTTCAAGCGCCATCTAC” the value was 0.236.
For “GATGATTGTTCTCCCAGCTGATGAATTAAACGATTCGAGTAAACAAATTTTCCTAATCTTTCTGTTCAAGCGCCATCTAC”, the binding signal (RPM ratio (pull-down/input)) came to 0.351.
Take “GATGATTGTTCTCCCAGCTGATGAATTGCTAGTATCGAGTAAACAAATTTTCCTAATCTTTCTGTTCAAGCGCCATCTAC”: the binding signal (RPM ratio (pull-down/input)) came to 1.12.
For “GATGATTGTTCTCCCAGCTGATGAATTATTCCGTTCGAGTAAACAAATTTTCCTAATCTTTCTGTTCAAGCGCCATCTAC” the value was 0.301.
As to “GATGATTGTTCTCCCAGCTGATGAATTTTCGATATCGAGTAAACAAATTTTCCTAATCTTTCTGTTCAAGCGCCATCTAC”, the binding signal (RPM ratio (pull-down/input)) turned out to be 0.451.
For “GATGATTGTTCTCCCAGCTGATGAATTCCGTAGTTCGAGTAAACAAATTTTCCTAATCTTTCTGTTCAAGCGCCATCTAC” the value was 0.804; for “GATGATTGTTCTCCCAGCTGATGAATTTCGGGGTTCGAGTAAACAAATTTTCCTAATCTTTCTGTTCAAGCGCCATCTAC”, 0.424.
The figure for “GATGATTGTTCTCCCAGCTGATGAATTATTTTCATCGAGTAAACAAATTTTCCTAATCTTTCTGTTCAAGCGCCATCTAC” is 0.748; for “GATGATTGTTCTCCCAGCTGATGAATTCCCTAAATCGAGTAAACAAATTTTCCTAATCTTTCTGTTCAAGCGCCATCTAC” it is 0.213.
As for “GATGATTGTTCTCCCAGCTGATGAATTAACGAAGTCGAGTAAACAAATTTTCCTAATCTTTCTGTTCAAGCGCCATCTAC”, the binding signal (RPM ratio (pull-down/input)) came out at 0.2.
The figure for “GATGATTGTTCTCCCAGCTGATGAATTGCCAAGCTCGAGTAAACAAATTTTCCTAATCTTTCTGTTCAAGCGCCATCTAC” is 0.436; for “GATGATTGTTCTCCCAGCTGATGAATTGCATACCTCGAGTAAACAAATTTTCCTAATCTTTCTGTTCAAGCGCCATCTAC” it is 1.09.
For “GATGATTGTTCTCCCAGCTGATGAATTTATCACCTCGAGTAAACAAATTTTCCTAATCTTTCTGTTCAAGCGCCATCTAC” the value was 2.18; for “GATGATTGTTCTCCCAGCTGATGAATTTGAACAGTCGAGTAAACAAATTTTCCTAATCTTTCTGTTCAAGCGCCATCTAC”, 0.234; for “GATGATTGTTCTCCCAGCTGATGAATTGACTTTGTCGAGTAAACAAATTTTCCTAATCTTTCTGTTCAAGCGCCATCTAC”, 0.639.
The figure for “GATGATTGTTCTCCCAGCTGATGAATTTCCGGTTTCGAGTAAACAAATTTTCCTAATCTTTCTGTTCAAGCGCCATCTAC” is 0.366; for “GATGATTGTTCTCCCAGCTGATGAATTTAGTGGCTCGAGTAAACAAATTTTCCTAATCTTTCTGTTCAAGCGCCATCTAC” it is 1.02.
For “GATGATTGTTCTCCCAGCTGATGAATTCTTGCTGTCGAGTAAACAAATTTTCCTAATCTTTCTGTTCAAGCGCCATCTAC”, the binding signal (RPM ratio (pull-down/input)) was determined as 0.508.
“GATGATTGTTCTCCCAGCTGATGAATTAATGATATCGAGTAAACAAATTTTCCTAATCTTTCTGTTCAAGCGCCATCTAC”: the binding signal (RPM ratio (pull-down/input)) is 0.583.
For “GATGATTGTTCTCCCAGCTGATGAATTGGCCCCTTCGAGTAAACAAATTTTCCTAATCTTTCTGTTCAAGCGCCATCTAC” the value was 0.305.
In the case of “GATGATTGTTCTCCCAGCTGATGAATTTTATATCTCGAGTAAACAAATTTTCCTAATCTTTCTGTTCAAGCGCCATCTAC”, the binding signal (RPM ratio (pull-down/input)) stood at 0.767.
The figure for “GATGATTGTTCTCCCAGCTGATGAATTATGGCCCTCGAGTAAACAAATTTTCCTAATCTTTCTGTTCAAGCGCCATCTAC” is 0.687; for “GATGATTGTTCTCCCAGCTGATGAATTTGCCATCTCGAGTAAACAAATTTTCCTAATCTTTCTGTTCAAGCGCCATCTAC” it is 2.56.
The figure for “GATGATTGTTCTCCCAGCTGATGAATTACTATTATCGAGTAAACAAATTTTCCTAATCTTTCTGTTCAAGCGCCATCTAC” is 0.758; for “GATGATTGTTCTCCCAGCTGATGAATTAGGCGTGTCGAGTAAACAAATTTTCCTAATCTTTCTGTTCAAGCGCCATCTAC” it is 3.3; for “GATGATTGTTCTCCCAGCTGATGAATTGGATGTATCGAGTAAACAAATTTTCCTAATCTTTCTGTTCAAGCGCCATCTAC” it is 1.42.
For “GATGATTGTTCTCCCAGCTGATGAATTCTCGCTATCGAGTAAACAAATTTTCCTAATCTTTCTGTTCAAGCGCCATCTAC” the value was 0.593.
For “GATGATTGTTCTCCCAGCTGATGAATTAACGCCATCGAGTAAACAAATTTTCCTAATCTTTCTGTTCAAGCGCCATCTAC”, the binding signal (RPM ratio (pull-down/input)) turned out to be 2.15.
With “GATGATTGTTCTCCCAGCTGATGAATTGCGTATATCGAGTAAACAAATTTTCCTAATCTTTCTGTTCAAGCGCCATCTAC”, the binding signal (RPM ratio (pull-down/input)) is 2.34.
For “GATGATTGTTCTCCCAGCTGATGAATTGTAAGTCTCGAGTAAACAAATTTTCCTAATCTTTCTGTTCAAGCGCCATCTAC” the value was 0.647; for “GATGATTGTTCTCCCAGCTGATGAATTGGTATATTCGAGTAAACAAATTTTCCTAATCTTTCTGTTCAAGCGCCATCTAC”, 2.34.
For “GATGATTGTTCTCCCAGCTGATGAATTACGCAGTTCGAGTAAACAAATTTTCCTAATCTTTCTGTTCAAGCGCCATCTAC” the value was 1.3; for “GATGATTGTTCTCCCAGCTGATGAATTAGGCGTTTCGAGTAAACAAATTTTCCTAATCTTTCTGTTCAAGCGCCATCTAC”, 2.84; for “GATGATTGTTCTCCCAGCTGATGAATTACCGGTTTCGAGTAAACAAATTTTCCTAATCTTTCTGTTCAAGCGCCATCTAC”, 0.427.
In the case of “GATGATTGTTCTCCCAGCTGATGAATTACCGGTATCGAGTAAACAAATTTTCCTAATCTTTCTGTTCAAGCGCCATCTAC”, the binding signal (RPM ratio (pull-down/input)) came out at 0.463.
For “GATGATTGTTCTCCCAGCTGATGAATTCCCGGTGTCGAGTAAACAAATTTTCCTAATCTTTCTGTTCAAGCGCCATCTAC” the value was 0.317; for “GATGATTGTTCTCCCAGCTGATGAATTTTTACGTTCGAGTAAACAAATTTTCCTAATCTTTCTGTTCAAGCGCCATCTAC”, 0.291; for “GATGATTGTTCTCCCAGCTGATGAATTGGGTTAATCGAGTAAACAAATTTTCCTAATCTTTCTGTTCAAGCGCCATCTAC”, 0.292.
The figure for “GATGATTGTTCTCCCAGCTGATGAATTATTAGGATCGAGTAAACAAATTTTCCTAATCTTTCTGTTCAAGCGCCATCTAC” is 0.396; for “GATGATTGTTCTCCCAGCTGATGAATTTACCCGGTCGAGTAAACAAATTTTCCTAATCTTTCTGTTCAAGCGCCATCTAC” it is 0.233; for “GATGATTGTTCTCCCAGCTGATGAATTCGCCCGCTCGAGTAAACAAATTTTCCTAATCTTTCTGTTCAAGCGCCATCTAC” it is 0.335.
The figure for “GATGATTGTTCTCCCAGCTGATGAATTATGGGGTTCGAGTAAACAAATTTTCCTAATCTTTCTGTTCAAGCGCCATCTAC” is 0.59.
Take “GATGATTGTTCTCCCAGCTGATGAATTTTAAAAGTCGAGTAAACAAATTTTCCTAATCTTTCTGTTCAAGCGCCATCTAC”: the binding signal (RPM ratio (pull-down/input)) was found to be 0.174.
For “GATGATTGTTCTCCCAGCTGATGAATTCCCGCCGTCGAGTAAACAAATTTTCCTAATCTTTCTGTTCAAGCGCCATCTAC” the value was 0.469.
For “GATGATTGTTCTCCCAGCTGATGAATTTGGATGCTCGAGTAAACAAATTTTCCTAATCTTTCTGTTCAAGCGCCATCTAC” the value was 1.17; for “GATGATTGTTCTCCCAGCTGATGAATTCCAACTGTCGAGTAAACAAATTTTCCTAATCTTTCTGTTCAAGCGCCATCTAC”, 0.337; for “GATGATTGTTCTCCCAGCTGATGAATTCTGGTCATCGAGTAAACAAATTTTCCTAATCTTTCTGTTCAAGCGCCATCTAC”, 0.498.
For “GATGATTGTTCTCCCAGCTGATGAATTTGTCTAGTCGAGTAAACAAATTTTCCTAATCTTTCTGTTCAAGCGCCATCTAC” the value was 3.36; for “GATGATTGTTCTCCCAGCTGATGAATTTCCGTGGTCGAGTAAACAAATTTTCCTAATCTTTCTGTTCAAGCGCCATCTAC”, 0.282; for “GATGATTGTTCTCCCAGCTGATGAATTTGATTCATCGAGTAAACAAATTTTCCTAATCTTTCTGTTCAAGCGCCATCTAC”, 1.07.
On to “GATGATTGTTCTCCCAGCTGATGAATTCACACGATCGAGTAAACAAATTTTCCTAATCTTTCTGTTCAAGCGCCATCTAC”, for which the binding signal (RPM ratio (pull-down/input)) amounted to 0.278.
The figure for “GATGATTGTTCTCCCAGCTGATGAATTCACTATATCGAGTAAACAAATTTTCCTAATCTTTCTGTTCAAGCGCCATCTAC” is 0.382; for “GATGATTGTTCTCCCAGCTGATGAATTTCCTGTGTCGAGTAAACAAATTTTCCTAATCTTTCTGTTCAAGCGCCATCTAC” it is 0.352; for “GATGATTGTTCTCCCAGCTGATGAATTCATAGCATCGAGTAAACAAATTTTCCTAATCTTTCTGTTCAAGCGCCATCTAC” it is 1.06.
The figure for “GATGATTGTTCTCCCAGCTGATGAATTGTATAGATCGAGTAAACAAATTTTCCTAATCTTTCTGTTCAAGCGCCATCTAC” is 1.24.
The figure for “GATGATTGTTCTCCCAGCTGATGAATTTGTATCTTCGAGTAAACAAATTTTCCTAATCTTTCTGTTCAAGCGCCATCTAC” is 5.56.
